target: T1, PARP7 (amino acids 456-657) (Homo sapiens, UniProt Q7Z3E1); assay: PARP7 biochemical DELFIA assay (auto-MARylation); conditions: Table 1
T1 sequence (Q7Z3E1 456-657): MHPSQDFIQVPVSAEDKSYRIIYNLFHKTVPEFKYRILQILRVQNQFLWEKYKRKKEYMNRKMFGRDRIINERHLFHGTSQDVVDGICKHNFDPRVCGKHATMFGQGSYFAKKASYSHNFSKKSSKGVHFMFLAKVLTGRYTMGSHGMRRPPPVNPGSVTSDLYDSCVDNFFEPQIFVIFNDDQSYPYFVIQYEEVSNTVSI

Compound | IC50 [µM]
O=C(CN1CCCC(c2cc(C(F)(F)F)c(=O)[nH]n2)C1)N1CCN(c2ncc(C(F)(F)F)cn2)CC1 (single isomer, unassigned) [Compound 14b] | 0.01 to 0.1
6-(1-(3-oxo-3-(4-(5-(trifluoromethyl)pyrimidin-2-yl)piperazin-1-yl)propyl)azetidin-2-yl)-4-(trifluoromethyl)pyridazin-3(2H)-one [Compound 5rac] | ≤ 0.01
O=C(CCN1CCCC(c2cc(C(F)(F)F)c(=O)[nH]n2)C1)N1CCN(c2ncc(OC(F)(F)F)cn2)CC1 (single isomer, unassigned) [Compound 13a] | 1 to 10
O=C(CN1CCCC1c1cc(C(F)(F)F)c(=O)[nH]n1)N1CCN(c2ncc(C(F)(F)F)cn2)CC1 (single isomer, unassigned) [Compound 24a, 6-(1-(2-oxo-2-(4-(5-(trifluoromethyl)pyrimidin-2-yl)piperazin-1-yl)ethyl)pyrrolidin-2-yl)-4-(trifluoromethyl)pyridazin-3(2H)-one] | 1 to 10
O=C(CCN1CCCC1c1cc(C(F)(F)F)c(=O)[nH]n1)N1CCN(c2ncc(C(F)(F)F)cn2)CC1 (single isomer, unassigned) [Compound 18b, 6-(1-(3-oxo-3-(4-(5-(trifluoromethyl)pyrimidin-2-yl)piperazin-1-yl)propyl)pyrrolidin-2-yl)-4-(trifluoromethyl)pyridazin-3(2H)-one] | 0.01 to 0.1
O=C(CCN1CCCCC(c2cc(C(F)(F)F)c(=O)[nH]n2)C1)N1CCN(c2ncc(C(F)(F)F)cn2)CC1 (racemic) [Compound 12rac] | 0.1 to 1

same assay, conditions: Table 1A

Compound | IC50 [µM]
CNC(=O)c1ccc(N2CCN(C(=O)CN3CCOCC3c3cc(C(F)(F)F)c(=O)[nH]n3)CC2)cn1 (single isomer, unassigned) [Compound 90b] | 1 to 10
O=C(CN1Cc2ccccc2C1c1cc(C(F)(F)F)c(=O)[nH]n1)N1CC(Oc2ncc(C(F)(F)F)cn2)C1 (single isomer, unassigned) [Compound 114b] | > 10
O=C(CN1CCCC1c1cc(C(F)(F)F)c(=O)[nH]n1)N1CCN(c2ncc(F)cc2C(F)(F)F)CC1 (single isomer, unassigned) [Compound 120b] | 1 to 10
O=C(CN1CCCC1c1cc(C(F)(F)F)c(=O)[nH]n1)N1CCN(c2ccc(F)cn2)CC1 (single isomer, unassigned) [Compound 46b] | 1 to 10
CNC(=O)c1ccc(N2CCN(C(=O)CN3CCC(c4cc(C(F)(F)F)c(=O)[nH]n4)CC3)CC2)cn1 [Compound 64] | 1 to 10
N#Cc1cnc(N2CCN(C(=O)CN3CCCC3c3cc(C(F)(F)F)c(=O)[nH]n3)CC2)c(C(F)(F)F)c1 (single isomer, unassigned) [Compound 124b] | 1 to 10
O=C(CN1CCCC1c1cc(C(F)(F)F)c(=O)[nH]n1)N1CCN(c2ncc(Cl)cc2Cl)CC1 (single isomer, unassigned) [Compound 125b] | 1 to 10
O=C(CCN1CC2(c3cc(C(F)(F)F)c(=O)[nH]n3)CC1C2)N1CCN(c2ncc(C(F)(F)F)cn2)CC1 [Compound 103] | 1 to 10
CN(c1ncc(C(F)(F)F)cn1)C1CCN(C(=O)CN2CCCC2c2cc(C(F)(F)F)c(=O)[nH]n2)CC1 (single isomer, unassigned) [Compound 107b] | 0.1 to 1
CNC(=O)c1ccc(N2CCN(C(=O)CN3CCC(c4n[nH]c(=O)c5ccccc45)CC3)CC2)cn1 [Compound 50] | > 10
O=C(CN1CCCC1c1cc(C(F)(F)F)c(=O)[nH]n1)N1CCC2(CC1)CN(c1ncc(C(F)(F)F)cn1)C2 (single isomer, unassigned) [Compound 101b] | 0.1 to 1
O=C(CN1CCOCC1c1cc(C(F)(F)F)c(=O)[nH]n1)N1CCN(c2ncc(C(F)(F)F)cn2)CC1 (single isomer, unassigned) [Compound 88a] | 0.1 to 1

Results, then the compound that gave them:

IC50 [µM] | Compound
≤ 0.01 | O=C(CN1CCCC1c1c[nH]c(=O)c(C(F)(F)F)c1)N1CCN(c2ncc(C(F)(F)F)cn2)CC1 (racemic) [Compound 60rac, 5-(1-(2-oxo-2-(4-(5-(trifluoromethyl)pyrimidin-2-yl)piperazin-1-yl)ethyl)pyrrolidin-2-yl)-3-(trifluoromethyl)pyridin-2(1H)-one]
≤ 0.01 | O=C(CN1CC(F)(F)C[C@@H]1c1cc(C(F)(F)F)c(=O)[nH]n1)N1CCN(c2ncc(C(F)(F)F)cn2)CC1 [Compound 91a, (R)-6-(4,4-difluoro-1-(2-oxo-2-(4-(5-(trifluoromethyl)pyrimidin-2-yl)piperazin-1-yl)ethyl)pyrrolidin-2-yl)-4-(trifluoromethyl)pyridazin-3(2H)-one]
0.1 to 1 | CCc1cc(C2CCCN2CC(=O)N2CCN(c3ncc(C(F)(F)F)cn3)CC2)c[nH]c1=O (single isomer, unassigned) [Compound 57b]
≤ 0.01 | Cc1[nH]c(=O)c(C(F)(F)F)cc1C1CCCN1CC(=O)N1CCN(c2ncc(C(F)(F)F)cn2)CC1 (single isomer, unassigned) [Compound 102a, 6-methyl-5-(1-(2-oxo-2-(4-(5-(trifluoromethyl)pyrimidin-2-yl)piperazin-1-yl)ethyl)pyrrolidin-2-yl)-3-(trifluoromethyl)pyridin-2(1H)-one]
≤ 0.01 | O=C(CN1CCCC1c1cc(C(F)(F)F)c(=O)[nH]n1)N1CCN(c2ncc(OC(F)(F)F)cn2)CC1 (single isomer, unassigned) [Compound 72b]
≤ 0.01 | O=C(CN1CCCC1c1cc(Cl)c(=O)[nH]n1)N1CCN(c2ncc(C(F)(F)F)cn2)CC1 (racemic) [Compound 68rac, 4-chloro-6-(1-(2-oxo-2-(4-(5-(trifluoromethyl)pyrimidin-2-yl)piperazin-1-yl)ethyl)pyrrolidin-2-yl)pyridazin-3(2H)-one]
≤ 0.01 | O=C(CN1CCCC1c1cc(C(F)(F)F)c(=O)[nH]n1)N1CCN(c2ccc(C3CC3)cn2)CC1 (single isomer, unassigned) [Compound 79a]
0.1 to 1 | N#Cc1cc(C2CCCN2CC(=O)N2CC(Nc3ncc(C(F)(F)F)cn3)C2)n[nH]c1=O (single isomer, unassigned) [Compound 123a]
≤ 0.01 | N#Cc1cc(C2CCCN2CC(=O)N2CCN(c3ncc(C(F)(F)F)cn3)CC2)n[nH]c1=O (single isomer, unassigned) [Compound 98a, 3-oxo-6-(1-(2-oxo-2-(4-(5-(trifluoromethyl)pyrimidin-2-yl)piperazin-1-yl)ethyl)pyrrolidin-2-yl)-2,3-dihydropyridazine-4-carbonitrile]
0.01 to 0.1 | CNC(=O)c1ccc(N2CCN(C(=O)CN3CCC3c3cc(C(F)(F)F)c(=O)[nH]n3)CC2)cn1 (racemic) [Compound 53rac]
≤ 0.01 | COC1CC(c2cc(C(F)(F)F)c(=O)[nH]n2)N(CC(=O)N2CCN(c3ncc(C(F)(F)F)cn3)CC2)C1 (single isomer, unassigned) [Compound 138cis1, 6-(4-methoxy-1-(2-oxo-2-(4-(5-(trifluoromethyl)pyrimidin-2-yl)piperazin-1-yl)ethyl)pyrrolidin-2-yl)-4-(trifluoromethyl)pyridazin-3(2H)-one]
≤ 0.01 | O=C(CN1CCCC1c1cc(C(F)(F)F)c(=O)[nH]n1)N1CCN(c2ncc(Cl)cn2)CC1 (single isomer, unassigned) [Compound 35a]
≤ 0.01 | N#Cc1cc(Cl)cnc1N1CCN(C(=O)CN2CCCC2c2cc(C(F)(F)F)c(=O)[nH]n2)CC1 (single isomer, unassigned) [Compound 144a]

Source: patent publication US20260193238A1, “PHARMACEUTICAL COMPOUNDS AS PARP7 AND/OR PARP1 INHIBITORS” (Duke Street Bio Limited, priority 2022, published 2026)
